Among the data in paper PMC4792956 are binding values, retold here.

Sequences of proteins named here, by UniProt entry; tags and fusion partners are left off. A change or cut given only in a name is not applied to a line headed by its entry. A line that says so, or that is headed by a name, gives the form on record, which may keep a tag or linker. Residues count along the entry.
UniProt Q9V3Z6: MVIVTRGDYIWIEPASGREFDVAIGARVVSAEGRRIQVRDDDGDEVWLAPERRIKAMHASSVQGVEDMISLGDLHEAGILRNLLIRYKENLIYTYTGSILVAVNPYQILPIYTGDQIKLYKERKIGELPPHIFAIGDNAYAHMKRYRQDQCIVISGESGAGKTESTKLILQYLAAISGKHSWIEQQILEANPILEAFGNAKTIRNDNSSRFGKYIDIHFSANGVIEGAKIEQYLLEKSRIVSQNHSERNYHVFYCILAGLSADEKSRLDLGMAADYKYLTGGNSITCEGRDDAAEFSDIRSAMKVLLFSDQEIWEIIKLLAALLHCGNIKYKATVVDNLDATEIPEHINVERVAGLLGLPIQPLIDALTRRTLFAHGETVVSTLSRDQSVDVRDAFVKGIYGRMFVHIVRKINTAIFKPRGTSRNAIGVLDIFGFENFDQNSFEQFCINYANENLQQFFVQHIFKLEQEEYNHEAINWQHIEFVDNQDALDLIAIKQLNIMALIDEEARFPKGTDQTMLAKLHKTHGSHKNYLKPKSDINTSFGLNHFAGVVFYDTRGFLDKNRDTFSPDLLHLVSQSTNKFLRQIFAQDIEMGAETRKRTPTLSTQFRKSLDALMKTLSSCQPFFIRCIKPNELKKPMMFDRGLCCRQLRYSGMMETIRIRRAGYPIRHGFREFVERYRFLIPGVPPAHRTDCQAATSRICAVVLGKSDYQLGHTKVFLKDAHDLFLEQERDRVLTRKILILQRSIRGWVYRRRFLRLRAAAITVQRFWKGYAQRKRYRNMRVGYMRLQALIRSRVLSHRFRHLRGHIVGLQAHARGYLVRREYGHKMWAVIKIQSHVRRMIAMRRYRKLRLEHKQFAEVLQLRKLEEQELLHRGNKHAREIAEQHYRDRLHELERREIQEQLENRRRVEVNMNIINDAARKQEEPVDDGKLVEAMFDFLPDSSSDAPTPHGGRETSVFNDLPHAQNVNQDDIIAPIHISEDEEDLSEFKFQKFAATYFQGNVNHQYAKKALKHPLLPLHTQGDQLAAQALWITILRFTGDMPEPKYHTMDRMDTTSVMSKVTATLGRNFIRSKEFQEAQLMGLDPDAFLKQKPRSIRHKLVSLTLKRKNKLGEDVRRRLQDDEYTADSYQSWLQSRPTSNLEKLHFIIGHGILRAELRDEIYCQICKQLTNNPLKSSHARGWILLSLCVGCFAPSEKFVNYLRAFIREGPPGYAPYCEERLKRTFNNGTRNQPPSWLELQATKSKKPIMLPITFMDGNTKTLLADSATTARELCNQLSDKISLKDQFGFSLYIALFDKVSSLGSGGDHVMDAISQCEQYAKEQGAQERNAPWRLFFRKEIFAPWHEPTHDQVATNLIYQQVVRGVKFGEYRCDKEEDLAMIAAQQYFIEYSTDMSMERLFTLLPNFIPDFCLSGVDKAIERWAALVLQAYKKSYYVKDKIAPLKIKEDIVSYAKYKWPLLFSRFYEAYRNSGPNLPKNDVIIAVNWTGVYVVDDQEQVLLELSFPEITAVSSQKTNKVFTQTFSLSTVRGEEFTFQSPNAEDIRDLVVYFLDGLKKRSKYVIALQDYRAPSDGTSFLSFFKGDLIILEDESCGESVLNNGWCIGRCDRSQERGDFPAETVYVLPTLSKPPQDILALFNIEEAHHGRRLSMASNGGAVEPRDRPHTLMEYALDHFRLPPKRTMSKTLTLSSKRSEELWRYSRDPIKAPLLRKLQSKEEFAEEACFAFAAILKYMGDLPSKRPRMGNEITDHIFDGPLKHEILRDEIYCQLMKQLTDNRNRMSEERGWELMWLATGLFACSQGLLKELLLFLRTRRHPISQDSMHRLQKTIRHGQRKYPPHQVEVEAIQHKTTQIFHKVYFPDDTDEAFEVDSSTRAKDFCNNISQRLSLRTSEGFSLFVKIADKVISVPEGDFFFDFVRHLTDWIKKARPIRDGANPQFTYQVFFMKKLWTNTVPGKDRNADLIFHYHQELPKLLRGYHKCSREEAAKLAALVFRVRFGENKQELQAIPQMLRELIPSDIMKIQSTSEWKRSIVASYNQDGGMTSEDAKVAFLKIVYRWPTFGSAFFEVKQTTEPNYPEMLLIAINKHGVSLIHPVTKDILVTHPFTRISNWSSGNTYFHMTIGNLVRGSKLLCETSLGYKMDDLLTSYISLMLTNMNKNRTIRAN
HA-tagged CK 998-1,668 (Drosophila (D. melanogaster)): residues 998-1668 of Q9V3Z6
V5-SGG46 (P18431-1, form named): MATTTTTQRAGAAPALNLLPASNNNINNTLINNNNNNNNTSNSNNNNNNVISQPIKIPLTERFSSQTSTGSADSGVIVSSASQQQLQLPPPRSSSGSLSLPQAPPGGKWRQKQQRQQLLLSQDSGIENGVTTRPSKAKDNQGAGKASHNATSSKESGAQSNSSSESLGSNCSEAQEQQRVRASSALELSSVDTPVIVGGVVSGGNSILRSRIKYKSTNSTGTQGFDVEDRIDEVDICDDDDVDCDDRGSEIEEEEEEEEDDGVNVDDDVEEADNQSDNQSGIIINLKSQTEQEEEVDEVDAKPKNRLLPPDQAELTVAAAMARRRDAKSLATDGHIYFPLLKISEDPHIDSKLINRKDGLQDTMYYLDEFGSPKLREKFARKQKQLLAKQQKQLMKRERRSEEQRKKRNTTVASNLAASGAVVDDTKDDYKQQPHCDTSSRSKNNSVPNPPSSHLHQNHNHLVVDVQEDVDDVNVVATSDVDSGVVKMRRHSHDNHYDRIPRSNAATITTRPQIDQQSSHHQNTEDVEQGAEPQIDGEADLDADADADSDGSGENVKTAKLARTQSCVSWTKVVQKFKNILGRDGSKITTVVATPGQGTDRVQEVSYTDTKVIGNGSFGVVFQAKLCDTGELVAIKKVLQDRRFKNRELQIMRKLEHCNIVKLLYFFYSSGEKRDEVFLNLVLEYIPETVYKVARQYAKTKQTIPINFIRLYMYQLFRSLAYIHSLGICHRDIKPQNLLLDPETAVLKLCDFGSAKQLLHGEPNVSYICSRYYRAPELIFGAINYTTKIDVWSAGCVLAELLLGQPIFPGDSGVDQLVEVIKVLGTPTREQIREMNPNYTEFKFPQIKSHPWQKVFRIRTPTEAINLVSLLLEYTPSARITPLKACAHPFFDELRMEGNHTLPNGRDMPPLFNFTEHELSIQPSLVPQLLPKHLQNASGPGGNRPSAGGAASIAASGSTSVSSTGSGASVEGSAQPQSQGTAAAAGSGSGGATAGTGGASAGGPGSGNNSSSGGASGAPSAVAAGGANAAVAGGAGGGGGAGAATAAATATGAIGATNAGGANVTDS

Where two headings read alike, the source gives them in different places. No constants are given. Whether binding was seen depends on the method and setting. In cells and extracts the contact can be indirect. Some results given as binding are weak or reduced against the parent protein; the word gives no strength. For some of these results: Where a sequence is shown, tags or fusion partners need not be part of it.

Experiment [1] deals with HA-CK (Drosophila (D. melanogaster)) (UniProt Q9V3Z6). In words: co-IP; co-expressed in Drosophila S2 cells; α-HA immunoprecipitation, immunoblotting; lysis in 50 mM Tris pH 7.5, 150 mM NaCl, 0.1% Triton X-100, 10% glycerol, 1 mM EDTA.
In a further experiment the target is T1, MYC-DRONC (Drosophila) (UniProt Q9XYF4).
T1 sequence: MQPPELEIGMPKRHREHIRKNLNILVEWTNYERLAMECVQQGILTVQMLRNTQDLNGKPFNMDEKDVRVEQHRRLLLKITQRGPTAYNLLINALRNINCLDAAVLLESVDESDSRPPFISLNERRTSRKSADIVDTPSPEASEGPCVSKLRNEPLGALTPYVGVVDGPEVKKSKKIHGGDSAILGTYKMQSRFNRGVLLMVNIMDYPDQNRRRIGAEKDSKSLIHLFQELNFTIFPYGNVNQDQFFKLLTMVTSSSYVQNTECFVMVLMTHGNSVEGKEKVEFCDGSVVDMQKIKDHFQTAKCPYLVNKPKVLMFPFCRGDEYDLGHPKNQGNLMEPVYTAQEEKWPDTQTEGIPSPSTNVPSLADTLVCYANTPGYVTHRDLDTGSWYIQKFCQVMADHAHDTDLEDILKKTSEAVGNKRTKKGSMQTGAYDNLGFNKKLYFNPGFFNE
Kind of experiment: co-IP; co-expressed in Drosophila S2 cells; α-MYC immunoprecipitation, immunoblotting; lysis in 50 mM Tris pH 7.5, 150 mM NaCl, 0.1% Triton X-100, 10% glycerol, 1 mM EDTA.

In experiment [2] the target is HA-CK (Drosophila (D. melanogaster)) (UniProt Q9V3Z6). In words: co-IP; co-expressed in Drosophila S2 cells; α-HA immunoprecipitation, immunoblotting; lysis in 50 mM Tris pH 7.5, 150 mM NaCl, 0.1% Triton X-100, 10% glycerol, 1 mM EDTA. This is another data set of the same source.
For experiment [3], the target named is T2, endogenous RIPK1 (SWISS-3T3 cells) (mouse (endogenous in SWISS-3T3)) (UniProt Q60855).
T2 sequence: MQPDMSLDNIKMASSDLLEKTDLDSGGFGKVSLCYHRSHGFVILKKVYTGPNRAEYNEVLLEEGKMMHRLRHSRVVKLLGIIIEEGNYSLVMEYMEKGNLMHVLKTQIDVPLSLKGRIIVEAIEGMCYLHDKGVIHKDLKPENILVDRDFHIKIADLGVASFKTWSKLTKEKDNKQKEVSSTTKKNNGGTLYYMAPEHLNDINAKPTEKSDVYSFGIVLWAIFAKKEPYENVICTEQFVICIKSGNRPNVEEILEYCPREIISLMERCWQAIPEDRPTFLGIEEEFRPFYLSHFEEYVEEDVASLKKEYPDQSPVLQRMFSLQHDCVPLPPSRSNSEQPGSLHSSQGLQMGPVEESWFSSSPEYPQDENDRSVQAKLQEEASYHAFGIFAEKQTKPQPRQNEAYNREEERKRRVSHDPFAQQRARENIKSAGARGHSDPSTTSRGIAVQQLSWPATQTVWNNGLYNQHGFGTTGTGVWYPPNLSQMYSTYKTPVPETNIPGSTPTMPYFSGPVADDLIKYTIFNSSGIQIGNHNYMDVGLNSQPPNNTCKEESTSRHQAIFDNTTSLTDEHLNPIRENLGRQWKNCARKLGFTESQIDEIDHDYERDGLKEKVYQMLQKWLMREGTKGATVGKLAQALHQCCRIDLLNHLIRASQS
In words: proximity ligation; in situ PLA (Duolink) on endogenous proteins in fixed SWISS-3T3 cells; TNF treatment, with control or MYO7A RNAi.

Experiment [4] deals with HA-tagged CK 998-1,668 (Drosophila (D. melanogaster)) (UniProt Q9V3Z6). Kind of experiment: co-IP; co-expressed in Drosophila S2 cells; α-HA immunoprecipitation, immunoblotting; lysis in 50 mM Tris pH 7.5, 150 mM NaCl, 0.1% Triton X-100, 10% glycerol, 1 mM EDTA.

“V5-SGG46 (from UniProt P18431-1 1-1067) (enzyme)”: the binding result in experiment [1] was “binds”.

As to HA-CK (from UniProt Q9V3Z6 1-2167), the binding entry in the experiment with MYC-DRONC (Drosophila) is on record as “binds”.

B1: V5-drICE (enzyme, UniProt O01382 1-339)
chain: MDATNNGESADQVGIRVGNPEQPNDHTDALGSVGSGGAGSSGLVAGSSHPYGSGAIGQLANGYSSPSSSYRKNVAKMVTDRHAAEYNMRHKNRGMALIFNHEHFEVPTLKSRAGTNVDCENLTRVLKQLDFEVTVYKDCRYKDILRTIEYAASQNHSDSDCILVAILSHGEMGYIYAKDTQYKLDNIWSFFTANHCPSLAGKPKLFFIQACQGDRLDGGVTMQRSQTETDGDSSMSYKIPVHADFLIAYSTVPGFYSWRNTTRGSWFMQSLCAELAANGKRLDILTLLTFVCQRVAVDFESCTPDTPEMHQQKQIPCITTMLTRILRFSDKQLAPAGRV
With B1, the binding result in experiment [2] is “no binding”.

B2: endogenous CASP8 (SWISS-3T3 cells) (enzyme, UniProt O89110 1-480)
chain: MDFQSCLYAIAEELGSEDLAALKFLCLDYIPHKKQETIEDAQKLFLRLREKGMLEEGNLSFLKELLFHISRWDLLVNFLDCNREEMVRELRDPDNAQISPYRVMLFKLSEEVSELELRSFKFLLNNEIPKCKLEDDLSLLEIFVEMEKRTMLAENNLETLKSICDQVNKSLLGKIEDYERSSTERRMSLEGREELPPSVLDEMSLKMAELCDSPREQDSESRTSDKVYQMKNKPRGYCLIINNHDFSKAREDITQLRKMKDRKGTDCDKEALSKTFKELHFEIVSYDDCTANEIHEILEGYQSADHKNKDCFICCILSHGDKGVVYGTDGKEASIYDLTSYFTGSKCPSLSGKPKIFFIQACQGSNFQKGVPDEAGFEQQNHTLEVDSSSHKNYIPDEADFLLGMATVKNCVSYRDPVNGTWYIQSLCQSLRERCPQGDDILSILTGVNYDVSNKDDRRNKGKQMPQPTFTLRKKLFFPP
As to B2, the binding result in experiment [3] is listed as “binds”.

B3: V5-tagged full-length DRONC (enzyme, UniProt Q9XYF4 1-450)
chain: T1 sequence
With B3, the binding result in experiment [2] and in experiment [4] was “binds” in each case.

B4: V5-DIAP1 (protein, UniProt Q24306 1-438)
chain: MASVVADLPSYGPIAFDQVDNNTNATQLFKNNINKTRMNDLNREETRLKTFTDWPLDWLDKRQLAQTGMYFTHAGDKVKCFFCGVEIGCWEQEDQPVPEHQRWSPNCPLLRRRTTNNVPINAEALDRILPPISYDICGANDSTLEMREHAYAEGVIPMSQLIQSIGMNAVNAAGSVTGTAAPQPRVTVATHASTATQATGDVQPETCRPSAASGNYFPQYPEYAIETARLRTFEAWPRNLKQKPHQLAEAGFFYTGVGDRVRCFSCGGGLMDWNDNDEPWEQHALWLSQCRFVKLMKGQLYIDTVAAKPVLAEEKEESSSIGGVAVASTQASEEEQQTSLSSEEAVSGDVAPSVAPTAATRIFNKIVEATAVATPSTNSSGSTSIPEEKLCKICYGAEYNTAFLPCGHVVACAKCASSVTKCPLCRKPFTDVMRVYFS
For the molecule B4, the binding entry in experiment [2] is “no binding”.
